To fix the notation:
B1: chr10:91841327:91841437:+|CDS|ENSG00000107854|unk|total|mutant (ssRNA)
RNA: GGGAGUUCUACAGUCCGACGAUCUUCUUAUGGACAUUAUGAAGUUGCAGAACUUCUUGUUAAACAUGGAGCAGCCGUUAAUGCCGCUGAUUUAUGGAAAUUUACACCUUUACAUGAAGCAGCAGCAAAAGGAAAAUAUGAAAUCAACAGAGGAUUGAGCAUCA
B2: ENSG00000105953:stop:overlap|stop_codon|ENSG00000105953|stop_codon|NA|stop_codon (ssRNA)
RNA: GGGAGUUCUACAGUCCGACGAUCCGGAGCUGCAGCGCCUCCUGGACACGGCCUUCGACCUGGACGUCUUCAAGAACUUCUCGUAGAUGCUGCCUAGGGUUGCUUGGGCCACUGCCCUCUCCACACCCAUGACUGCCCCUUGCUCAACAGAGGAUUGAGCAUCA
B3: ENSG00000136451:be:win_2101|3pUTR|ENSG00000136451|bound_else_gene|NA|bound_elsewhere_windowed (ssRNA)
RNA: GGGAGUUCUACAGUCCGACGAUCAUGUUAAUUUCAGGCAGCAUUCCCUAUGGGAAAGGUGAUACCAGCUCUGAUAUGCAAAGCAUAUGAUAAUUUAUCAUUCUAACUUCAACGUAUAAUAGGGAUUGUGACCUGAUAUUUGGACAACAGAGGAUUGAGCAUCA
B4: chr12:13083531:13085147:-|three_prime_utr|ENSG00000111305|control|control|control (ssRNA)
RNA: GGGAGUUCUACAGUCCGACGAUCUCCGAGCUGCGGAACAAGGGAUUUCAAAGAGGGGCCAGCCAGGAGCUGAAAGAAGCAGUUAGGUCAUCUGUAGAGGAAGAGCAGUGUUAGGAGUUAAGCGGGUUUGGGGAGUAGGCUUGACAACAGAGGAUUGAGCAUCA
B5: chr19:48404743:48404844:+|CDS|ENSG00000105464|unk|FALSE|unique (ssRNA)
RNA: GGGAGUUCUACAGUCCGACGAUCCGAGCAACAGCUUCAGGUCAUCUUUGAGGUGCUGGAGGAGUAUGACUGGACGUCCUUUGUAGCCGUGACCACUCGUGCCCCUGGCCACCGGGCCUUCCUGUCCUACAUUGAGGUGCUGACCAACAGAGGAUUGAGCAUCA
B6: chr12:68660398:68660499:+|3pUTR|ENSG00000127314|msi1|FALSE|unique (ssRNA)
RNA: GGGAGUUCUACAGUCCGACGAUCUUGAGGUGGCCAAAUGUAAACUAAAAGCCUUAAUUAAAGUGGUGCAAUUUUGUAUAACUUAGCAUCAGUAGUUCAAUAAAUUUGGAUUGCCAUGCAAGGGCUUGCAUUAUAAUUACUUGCCAACAGAGGAUUGAGCAUCA
B7: chr5:136976780:136976881:-|3pUTR|ENSG00000152377|msi1|FALSE|unique (ssRNA)
RNA: GGGAGUUCUACAGUCCGACGAUCCUUAAAUUAGCAUGUUCCAAUCCAGUCGGCAUUGCCUGAAUACAGUAGCAUCAUACCUAUAGUUGGUCUUAGAUAAGAAAUGAACUACUUGAUAUAGCAAAGUCCUUUGGCUUCGUAAAUCAACAGAGGAUUGAGCAUCA
B8: chr9:101390585:101390694:-|CDS|ENSG00000136897|unk|total|mutant (ssRNA)
RNA: GGGAGUUCUACAGUCCGACGAUCUAAUUGGCAAGACAUCUCCCUGGAAGACCGUCGUCUAAAGUUCAAUCUUCUGGCUCAUUCCGCUGAUGACUUGGGUCAUGCCGUCCCUAACUCCAGACUCCACCAGAUGUGCAGGGUCCGCAACAGAGGAUUGAGCAUCA
B9: chr17:75064992:75065093:+|3pUTR|ENSG00000180901|msi1|total|mutant (ssRNA)
RNA: GGGAGUUCUACAGUCCGACGAUCAGGCGCUUGUCCCUGUCUGCUUUCCUGGGGCAUGCCUGAUCAGCGUGGGCUGGAGCUCCCCGACCAACCCCAGCUUUCUCACCAGGUUCAGCAAGGAGGCCUGGGGGUCAGACACCAAUGCAACAGAGGAUUGAGCAUCA
B10: chr1:9729969:9730061:-|3pUTR|ENSG00000171603|msi1_unk|FALSE|overlapping (ssRNA)
RNA: GGGAGUUCUACAGUCCGACGAUCGUUUUUAUUUUUUCCAAACUAGUGCAUGUAUAAAUAAUGGCAGGAUGGGGGGUACUGUGUAGAUGAUUAACUGACUUUUUAAUAUUUUGUAAAUAAAUCGGAUUCCUUGUGUCCUUUGUGCAACAGAGGAUUGAGCAUCA
B11: ENSG00000084774:stop:overlap|stop_codon|ENSG00000084774|stop_codon|NA|stop_codon (ssRNA)
RNA: GGGAGUUCUACAGUCCGACGAUCAGGCUGAGAACGGCAUGUACAUCCGCAUGGCUCUGUUAGCCACCGUGCUGGGCCGUUUCUAGGGCCUGGCUUCCUCAGCCUCUUCUCUUUAGGCCCAGCUGCUGGGCAAGGAAUUCCAGUCAACAGAGGAUUGAGCAUCA
B12: chr5:140245379:140245480:-|3pUTR|ENSG00000113068|msi1|total|mutant (ssRNA)
RNA: GGGAGUUCUACAGUCCGACGAUCUCUUCUCUUUUCCCUUCCUGUACCUUUGACUAACGCUCAGCUUCCGGGCCUGCAUGCAGCCGACAGAAGAGGAAGAAAGAACAGAUGUUCACAGCUGAAUCUCAGUGAACAGAACCGCAGCAACAGAGGAUUGAGCAUCA
B13: ENSG00000070961:be:win_3701|3pUTR|ENSG00000070961|bound_else_gene|NA|bound_elsewhere_windowed (ssRNA)
RNA: GGGAGUUCUACAGUCCGACGAUCAGAAACAAAUUGAAACUGGGUCUUUUCACAUAUUGUGAUGGACAAGCUAGUAUUCUUGUCUUUGGACUUCAACAGAAGACACACUUGUACGAAUGUAGAUUUAUUUUUUUAAAAAAAAAACAACAGAGGAUUGAGCAUCA
B14: chr17:65014400:65014519:-|CDS|ENSG00000120063|unk|total|mutant (ssRNA)
RNA: GGGAGUUCUACAGUCCGACGAUCAAACAAGACAGACUUGCUUGAGGAGAAGGUGCAAAUUGUGAGCAUCAAAGACUAUUUCCCCGAAUUUGAAGGGGAUCCCCACUGCUUAAGAGACGUCCAAAAAUUCCUGGUGGAAUGUUUCAACAGAGGAUUGAGCAUCA

This is one part of the list.

This experiment concerns the target MSI1 full-length (mouse, UniProt Q61474 1-362). Description: nsRBNS (natural sequence RNA bind-n-seq); RBNS binding buffer (assumed for nsRBNS): 25 mM Tris pH 7.5, 150 mM KCl, 3 mM MgCl2, 0.01% Triton X-100, 500 ug/ml BSA, 20 U/ml SUPERase-In, 4 C; UNK is unkempt and MSI1 is Musashi-1; names of the RNAs are library labels; protein concentration not given here; high values mean tight binding.
Sequence of UniProt Q61474 (Q61474 whole entry): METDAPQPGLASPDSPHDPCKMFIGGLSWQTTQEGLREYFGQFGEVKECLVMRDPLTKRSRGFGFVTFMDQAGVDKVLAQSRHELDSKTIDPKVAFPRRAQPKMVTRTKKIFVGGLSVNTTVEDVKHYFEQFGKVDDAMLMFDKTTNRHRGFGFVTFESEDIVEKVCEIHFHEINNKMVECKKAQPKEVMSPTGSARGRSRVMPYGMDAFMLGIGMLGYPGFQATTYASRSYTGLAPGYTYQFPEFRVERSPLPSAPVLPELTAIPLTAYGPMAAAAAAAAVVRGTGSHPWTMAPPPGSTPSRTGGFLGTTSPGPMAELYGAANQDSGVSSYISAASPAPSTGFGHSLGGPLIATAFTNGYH
B1: the binding signal was found to be 0.37 enrichment R.

As to B2, the binding signal is 0.678 enrichment R.

Regarding B3, the binding signal came out at 0.213 enrichment R.

As for B4, the binding signal came out at 1.27 enrichment R.

B5: the binding signal amounted to 0.216 enrichment R.

For the molecule B6, the binding signal was found to be 0.545 enrichment R.

B7 came in with a binding signal of 71.2 enrichment R.

The molecule B8 registered a binding signal of 0.406 enrichment R.

The molecule B9 came in with a binding signal of 0.545 enrichment R.

Turning to B10, the binding signal came out at 5.12 enrichment R.

For the molecule B11, the binding signal came out at 1 enrichment R.

The molecule B12 gave a binding signal of 0.401 enrichment R.

Consider B13, for which the binding signal was determined as 0.866 enrichment R.

The molecule B14 yielded a binding signal of 0.239 enrichment R.
